Source: PubChem BioAssay AID686971 (National Center for Advancing Translational Sciences (NCATS), 2013)
The campaign covered roughly 360,000 compounds. About 7,500 (2.1%) were called active. Inconclusive means that the source gave no clear call. Such entries were picked first, then a sample of the others. Calls follow the shape of the dose curve; as a rule, active = well fitted cell-killing curve with a large enough effect; inconclusive = small, poorly fitted or top-dose-only effect, or effect the other way, or another doubt; inactive = no such curve, though single readings can be large or run the other way. Potencies of inconclusive entries are left out as doubtful fits.

Assay: qHTS for induction of synthetic lethality in tumor cells producing 2HG: qHTS for the HT-1080-IDH1KD cell line;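 as to activity, negative = toxicity: 0% = DMSO wells and -100% = cell-free medium wells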
Details: HT-1080 IDH1 knockdown viability, ATP luminescence, 48 h; activity, negative = toxicity: at 46.1 µM (top of the series) unless noted
In short: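 CellTiter-Glo luminescence after 48 h compound exposure at 37 degrees C of IDH1-knockdown HT-1080 cells in 5% FBS RPMI. %Activity scaled between DMSO wells and cell-free media wells, with curves fitted and assigned curve classes.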
Potency is read from the fitted curve at half-maximal effect; tags tell the direction and shape of the fitted curve.

Structure (SMILES)	Potency	activity, negative = toxicity
COc1ccc([C@H]2C[C@@H](n3cc(C4CC4)nn3)[C@H](O)CN2CC2CCCCC2)cc1	inconclusive [cytotoxic, single point]	–
COc1ccccc1Oc1ccc(S(=O)(=O)N2CCOCC2)cc1S(=O)(=O)N1CCOCC1	–	inactive: 0.0091%
Cc1cc(NC(=O)CCC(=O)N(c2ccccc2C)C(C(=O)NC2CCCC2)c2ccccc2)no1 (centres undefined)	–	inconclusive: -9.68% [cytotoxic]
Cc1nc(N2CCN(c3ccccn3)CC2)c2c(C)c(C(=O)Nc3ccc(F)c(Cl)c3)sc2n1	–	inactive: 14.8%
CCCCC(=O)Nc1ccc(C(=O)Nc2cc(C(F)(F)F)ccc2Cl)cc1	inconclusive [cytotoxic, partial curve]	–
COc1ccccc1C=C(C(=O)c1ccccc1)c1ccccc1	inconclusive [cytotoxic, single point]	–
COc1ccc(CN(CC2CCCO2)C(=O)CN2C(=O)COc3ccccc32)cc1OC (centres undefined)	–	inactive: -0.33%
N#Cc1cccc(NC(=O)COC(=O)c2ccccc2C(=O)c2ccc(Cl)c([N+](=O)[O-])c2)c1	active: 5.17 µM	–
CCOc1ccc(Cl)cc1-c1cc(C(=O)Nc2ccc(F)cc2)[nH]n1	inconclusive [cytotoxic, single point]	–
COCCNC(=O)c1c[nH]c2ccc(S(=O)(=O)N3CCc4ccccc43)cc2c1=O	active: 2.31 µM	–
Cc1cc(C)nc(N/C(=N\S(=O)(=O)Cc2ccccc2)Nc2ccccc2Br)n1	inconclusive [cytotoxic, single point]	–
O=C(Nc1ccc(Br)cc1)C1CCN(c2cnccn2)CC1	inconclusive [cytotoxic, single point]	–
CCN(C(=O)CSc1nc2nc(C)cc(C)n2n1)c1ccccc1	inconclusive [cytotoxic, single point]	–
COC(=O)c1ccc(NC(=O)CN2C(=O)C3C4C=CC(C4)C3C2=O)cc1 (centres undefined)	inconclusive [cytotoxic, single point]	–
Cc1ccc(-n2nc3c(c2NC(=O)c2ccc4c(c2)OCO4)CS(=O)(=O)C3)cc1C	–	inactive: 5.26%
COc1ccc(OCC(=O)Nc2c(Cl)ccc3nsnc23)cc1	–	inactive: -7.17%
COCCNC(=O)CSc1ccc(Cl)cc1	–	inactive: -4.31%
CCOC(=O)c1cc2oc(C(c3nnnn3C3CCCCC3)N3CCOCC3)cc2[nH]1 (centres undefined)	inconclusive [cytotoxic, single point]	–
Cc1cccc(-n2c(SCC(=O)N3CC(=O)Nc4ccccc43)nc3ccccc3c2=O)c1C	inconclusive [cytotoxic, single point]	–
Cc1cc(-c2ccc(S(=O)(=O)N(C)c3ccc(C)c(C)c3)s2)on1	inconclusive [cytotoxic, single point]	–
C[C@H](CO)N1C[C@H](C)[C@@H](CN(C)C(=O)Nc2ccccc2)Oc2c(NC(=O)Nc3ccc(C(F)(F)F)cc3)cccc2C1=O	inconclusive [cytotoxic, single point]	–
CC(=O)NC1=NN(C(C)=O)C(C)(c2ccco2)S1 (centres undefined)	active: 23.1 µM	–

Structure (SMILES)	Potency	activity, negative = toxicity
O=C(NCc1nnnn1-c1ccc(Cl)cc1)c1ccc([N+](=O)[O-])o1	inconclusive [cytotoxic, single point]	–
CCC(=O)N(CCC1(c2ccccc2OC)CCOC(C(C)C)C1)Cc1ccco1 (centres undefined)	inconclusive [cytotoxic, partial curve, poor fit]	–
Brc1ccc(Nc2ncnc3[nH]ncc23)cc1	–	inactive: -0.703%
COc1ccc(F)cc1S(=O)(=O)Nc1cc2c3c(c1)CCN3C(=O)CC2	–	inactive: 0.707%
CC(=O)Nc1cccc(-c2ccnc3c2CC(C(=O)NCC2CC2)O3)c1 (centres undefined)	inconclusive [cytotoxic, single point]	–
Cc1ccc(Nc2nc(-c3c(C)nc4ncccn34)cs2)cc1	inconclusive [cytotoxic, full curve]	–
COC(=O)c1cc(N=Nc2sc(N)nc2C)cc(C(=O)OC)c1	inconclusive [cytotoxic, single point]	–
CCOc1cc(N2CCOCC2)c(OCC)cc1NC(=O)COc1cccc2cccnc12	inconclusive [cytotoxic, single point]	–
Cn1c(=O)[nH]c(=O)c2c1nc(N1CCCCC1)n2CCSc1ncccn1	–	inactive: -1.37%
CC(=O)c1ccc(Oc2cc(C)nc(-n3nc(C)cc3C)n2)cc1	active: 4.61 µM	–
CSc1ccc(-c2ccc3c(c2)c(Sc2ccccc2)c(-c2ccccc2)n3C)cc1	–	inactive: -2.14%
Clc1cccc(-c2nc(NCCCN3CCOCC3)c3ccccc3n2)c1	inconclusive [cytotoxic, single point]	–
Cc1c(Cl)ccc2c(C(=O)NCCN3CCCCC3)cc(-c3ccccn3)nc12	active: 23.1 µM	–
CCC(Sc1nc2n[nH]c(C)c2c(=N)n1-c1cccc(Cl)c1)C(=O)NCCOC (centres undefined)	inconclusive [cytotoxic, partial curve]	–
CN1CCN(c2ccccc2NC(=O)c2cccc(OCc3ccccc3)c2)CC1	active: 17.8 µM	–
CCOc1ccc(S(=O)(=O)Nc2ccc(C(=O)NCC(C)(C)N3CCOCC3)cc2)cc1	–	inactive: -16.6%
COc1cc2c(cc1NC(=O)CSc1nnc(COc3ccc(Cl)cc3)n1C)oc1ccccc12	inconclusive [cytotoxic, single point]	–
O=S(=O)(NC1c2cccc3cccc(c23)C1N1CCN(CCO)CC1)c1ccccc1 (centres undefined)	inconclusive [cytotoxic, partial curve]	–
CC(C)c1ccc(NC(=O)c2cc(S(=O)(=O)NCC3COc4ccccc4O3)ccc2F)cc1 (centres undefined)	inconclusive [cytotoxic, single point]	–
Cc1ccc(S(=O)(=O)NCCSc2nnnn2-c2cc(C)ccc2C)cc1	inconclusive [cytotoxic, single point]	–
Cc1[nH]c2ccccc2c1C(=O)C(=O)N1CC(C)OC(C)C1 (centres undefined)	–	inactive: 2.12%
COC(=O)C1=C(C)N(Cc2ccc(C)cc2)C(=O)/C1=C\c1ccc(O)c(OC)c1	inconclusive [cytotoxic, single point]	–
